# Laboratory results reported in PubChem BioAssay AID504339 (National Center for Advancing Translational Sciences (NCATS), 2011).
# About 17,000 (4.4%) of roughly 390,000 compounds were called active. This list was built around the results that the source calls inconclusive (neither active nor inactive); the mix of calls is not that of the screen. The call rests on the fitted dose curve; in most records, active means well fitted inhibition curve with a large enough effect; inconclusive means small, poorly fitted or top-dose-only effect; inactive means no such curve, though single readings can be large or run the other way. Potencies beside an inconclusive call are fits to weak or partial responses and may not hold up.
# Target: Lysine-specific demethylase 4A (Homo sapiens) (UniProt O75164)
# Assay: qHTS Assay for Inhibitors of JMJD2A-Tudor Domain; further: nearly all actives have a fitted effect of over 50% in size
# Details: AlphaScreen JMJD2A-Tudor / H3K4me3 peptide binding; series mostly up to 114 µM
# Potency means the concentration at half of the fitted maximal effect; tags describe the fitted curve by direction and shape.
# Chain of UniProt O75164 (O75164 whole entry, looked up, the tested form may be a part): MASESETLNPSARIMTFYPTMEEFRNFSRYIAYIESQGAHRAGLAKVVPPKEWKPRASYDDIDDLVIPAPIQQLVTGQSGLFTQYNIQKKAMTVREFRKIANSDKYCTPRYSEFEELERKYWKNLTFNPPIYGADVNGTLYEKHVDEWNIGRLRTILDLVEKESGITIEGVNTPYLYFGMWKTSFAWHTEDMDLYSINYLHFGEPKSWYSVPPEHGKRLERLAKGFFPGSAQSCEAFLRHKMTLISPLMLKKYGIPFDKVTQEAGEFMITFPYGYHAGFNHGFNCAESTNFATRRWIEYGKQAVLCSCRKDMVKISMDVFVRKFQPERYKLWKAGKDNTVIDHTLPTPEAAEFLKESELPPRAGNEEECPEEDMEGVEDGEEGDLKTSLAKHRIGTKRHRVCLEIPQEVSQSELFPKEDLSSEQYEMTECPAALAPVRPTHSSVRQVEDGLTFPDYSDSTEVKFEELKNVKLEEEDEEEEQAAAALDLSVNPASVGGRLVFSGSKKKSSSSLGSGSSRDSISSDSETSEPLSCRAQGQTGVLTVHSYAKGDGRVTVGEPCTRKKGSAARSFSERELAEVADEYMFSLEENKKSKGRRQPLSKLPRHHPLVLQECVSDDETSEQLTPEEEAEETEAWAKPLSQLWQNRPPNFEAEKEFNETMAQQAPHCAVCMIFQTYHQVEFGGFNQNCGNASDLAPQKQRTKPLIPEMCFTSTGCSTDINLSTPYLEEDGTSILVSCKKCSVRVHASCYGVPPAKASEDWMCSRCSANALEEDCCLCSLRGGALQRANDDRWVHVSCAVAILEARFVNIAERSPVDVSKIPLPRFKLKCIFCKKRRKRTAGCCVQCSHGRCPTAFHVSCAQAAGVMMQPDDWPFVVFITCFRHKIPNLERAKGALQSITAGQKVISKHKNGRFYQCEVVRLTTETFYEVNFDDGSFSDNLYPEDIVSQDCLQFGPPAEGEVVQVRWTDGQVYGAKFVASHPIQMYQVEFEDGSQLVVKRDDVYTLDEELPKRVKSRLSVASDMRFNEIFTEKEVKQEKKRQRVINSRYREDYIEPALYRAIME
row,Structure (SMILES),Potency
1,CC(C)c1ccc(-n2cccc2/C=C2/C(=N)N3C=CSC3=NC2=O)cc1,"inconclusive: 11.2 µM [inhibitor, full curve, poor fit]"
2,Cc1cccc(OCc2nnc(N)s2)c1,"inconclusive: 17.8 µM [inhibitor, full curve, poor fit]"
3,NS(=O)(=O)c1ccc(N/N=C/c2ccc(O)c(O)c2O)c([N+](=O)[O-])c1,active: 8.91 µM
4,Cn1c(-c2ccccc2)cnc1NCc1cc(Cl)ccc1O,active: 35.5 µM
5,Cc1ccc2nc(CSc3nnc(-c4ccco4)n3-c3ccccc3)cc(=O)n2c1,"inconclusive: 56.2 µM [inhibitor, partial curve, poor fit]"
6,CCOc1ccc(/C=N/NC(=O)CN2CCCCCCC2)cc1,active: 20 µM
7,COC(=O)c1c(C)[nH]c(/C=N/Nc2ccccc2)c1C,"inconclusive: 56.2 µM [inhibitor, partial curve]"
8,Cc1cccc(C)c1OCC(=O)Nc1c(C(=O)c2ccc(Br)cc2)oc2ccccc12,inactive
9,CCc1ccc2c(c1)CCCN2C(=O)c1ccccc1C(=O)O,"inconclusive: 79.4 µM [inhibitor, partial curve]"
10,Cc1ccc(-n2c(C)cc(C(=O)COC(=O)c3ccc[nH]c3=O)c2C)cc1,inactive
11,CCCCCC(=O)NNC(=S)NC(=O)c1ccc([N+](=O)[O-])cc1,"inconclusive: 35.5 µM [inhibitor, single point]"
12,CCN(CC)c1ccc(NC(=O)CCc2nnc3ccc(N4CCCCC4)nn23)c(C)c1,"inconclusive: 44.7 µM [inhibitor, partial curve]"
13,CC(c1n[nH]c(=S)n1-c1ccc(F)cc1)N1CCCCC1 (stereo not drawn),"inconclusive: 7.94 µM [inhibitor, full curve, poor fit]"
14,COc1ccc(-c2csc3ncnc(N4CCN(c5ccccc5)CC4)c23)cc1,"inconclusive: 12.6 µM [inhibitor, partial curve]"
15,CCc1noc(C)c1C(=O)Nc1nc(-c2ccc(OC)cc2)cs1,inactive
16,N#CCC(CNc1ncc(C(F)(F)F)cc1Cl)OC(=O)c1cccc([N+](=O)[O-])c1 (stereo not drawn),"inconclusive: 44.7 µM [inhibitor, partial curve]"
17,COc1ccc2cc1Oc1ccc(cc1)CC1c3c(cc(OC)c4c3Oc3cc5c(cc3O4)CCNC5C2)CCN1C (stereo not drawn),active: 11.2 µM
18,CCN(Cc1ccccc1)S(=O)(=O)c1ccc(C(=O)N(CCCN(C)C)c2nc3ccc(F)cc3s2)cc1,"inconclusive: 39.8 µM [inhibitor, partial curve]"
19,CCOC(=O)c1cc(-c2ccc(N3CCOCC3)cc2)nn1-c1ccccc1C(=O)O,active: 3.16 µM
20,COC(=O)c1ccc(Cn2c(O)c(N=NC(N)=S)c3ccccc32)o1,"inconclusive: 14.1 µM [inhibitor, full curve]"
21,O=C(C[C@@H]1C/C=C\C[C@H](Cc2ccc(F)cc2)C(=O)OCCNC1=O)N[C@H](CO)Cc1ccccc1,inactive
22,Clc1ccccc1/C=N/c1cc(-c2ccccc2)nn1-c1ccccc1,"inconclusive: 31.6 µM [inhibitor, single point]"
23,O=C(NCc1ccc(Cl)c(Cl)c1)c1ccco1,inactive

row,Structure (SMILES),Potency
1,CC1(C)CC(=O)CC2(C1)NCC(c1ccccc1Cl)c1c2[nH]c2ccccc12 (stereo not drawn),"inconclusive: 56.2 µM [inhibitor, partial curve, poor fit]"
2,Cc1ccc(NC(=O)C(=O)NCC(c2ccc3c(c2)OCO3)N2CCN(c3ccccc3)CC2)cc1 (stereo not drawn),inactive
3,C=CCc1cc(C)ccc1OCCOCCC(C(=O)OCC)C(=O)OCC,inactive
4,CCCC(=O)Nc1sc(C)c(-c2ccc(OC)cc2)c1C#N,inactive
5,Cc1ccc(C(=O)NNC(=O)c2cc3cc4ccccc4nc3s2)cc1,"inconclusive: 79.4 µM [inhibitor, partial curve]"
6,CCN(C(=O)C(Cc1ccccc1)NS(=O)(=O)c1cccc2nsnc12)c1ccccc1 (stereo not drawn),"inconclusive: 11.2 µM [inhibitor, full curve, poor fit]"
7,Cc1[nH]c2ccccc2c1C(C#N)(C#N)C1C(=O)c2ccccc2C1=O,active: 12.6 µM
8,CNC(=S)N1CCN(c2nc(-c3cccc(OC)c3)cs2)CC1,"inconclusive: 56.2 µM [inhibitor, partial curve]"
9,COC(=O)CSc1nnc(-c2ccccc2OC)n1-c1ccc(C)cc1,"inconclusive: 39.8 µM [inhibitor, single point]"
10,Cc1cc(OCC(=O)N(Cc2ccc(N(C)C)cc2)C2CCS(=O)(=O)C2)cc(C)c1Cl (stereo not drawn),active: 39.8 µM
11,CC(=O)N(C(C)=O)c1c(N2CCCC2)c2ccccc2oc1=O,inactive
12,CCC(c1nnnn1Cc1cccs1)N1CCN(C(=O)c2ccco2)CC1 (stereo not drawn),inactive
13,O=C(c1ccc(S(=O)(=O)Cc2ccccc2F)c([N+](=O)[O-])c1)N1CCCC1,"inconclusive: 20 µM [inhibitor, full curve]"
14,COc1ccc(C2CC3(CC(C)(C)NC(SC)=N3)Oc3cc(O)cc(C)c32)cc1 (stereo not drawn),active: 79.4 µM
15,Cc1ccc(N2CC(C(=O)Nc3ccc(S(=O)(=O)Nc4nccc(C)n4)cc3)CC2=O)cc1 (stereo not drawn),inactive
16,Cn1cc(C(=O)N2CCCCC2)c(=O)c2cc(S(=O)(=O)N3CCCC3)ccc21,inactive
17,CCN1CCN(S(=O)(=O)c2ccc(Cl)c(C(=O)Nc3cc(Cl)ccc3N3CCOCC3)c2)CC1,"inconclusive: 39.8 µM [inhibitor, partial curve]"
18,O=C(CSc1nc2ccc(Cl)cc2[nH]1)Nc1ccc2[nH]c(=O)[nH]c2c1,"inconclusive: 22.4 µM [inhibitor, partial curve]"
19,COc1ccccc1NS(=O)(=O)c1cc(NC(=O)Cn2cnc3c2c(=O)n(C)c(=O)n3C)ccc1C,"inconclusive: 39.8 µM [inhibitor, single point]"
20,CCOC(=O)c1c(CN2CCN(c3ccccc3)CC2)oc2cc(Br)c(O)cc12,active: 50.1 µM
21,COCCN=c1scc(-c2cc(OC)c(OC)c(OC)c2)n1/N=C/c1c(C)[nH]c2ccccc12,active: 20 µM
22,C/C(=N\Nc1ccc(C(=O)c2c(C)cc3ccccn23)cc1[N+](=O)[O-])c1ccc(O)cc1,"inconclusive: 2.82 µM [inhibitor, full curve, poor fit]"
23,CCOc1cc(CNC(=O)NC2COc3ccccc3C2)cc(OCC)c1OCC (stereo not drawn),inactive

row,Structure (SMILES),Potency
1,COc1ccc2c(c1)CCC1C2=NN(/C(C)=C\C(C)=O)C1c1ccc(F)cc1 (stereo not drawn),active: 14.1 µM
2,Cc1ccc(OCC(=O)Nc2nnc(SCc3cc(=O)n4cccc(C)c4n3)s2)cc1,"inconclusive: 56.2 µM [inhibitor, partial curve]"
3,Cc1ccc(C)c(NC(=O)CSc2nnc(NC(=O)C3CC3)s2)c1,"inconclusive: 3.98 µM [inhibitor, single point]"
4,COC(=O)c1ccccc1NC(=O)COC(=O)c1ccco1,"inconclusive: 50.1 µM [inhibitor, partial curve]"
5,CN(C)CCCN(C(=O)c1ccc(S(=O)(=O)N(C)C2CCCCC2)cc1)c1nc2ccc(Br)cc2s1,active: 35.5 µM
6,COc1ccc(N2CCN(CC(O)COc3cc(C)cc(C)c3)CC2)cc1 (stereo not drawn),"inconclusive: 50.1 µM [inhibitor, partial curve]"
7,Cc1ccc(CN2CCN(/N=C/c3ccc(N(C)C)cc3)CC2)cc1,"inconclusive: 39.8 µM [inhibitor, partial curve]"
8,O=S(=O)(/N=C(/Nc1nccs1)c1ccc(F)cc1)c1ccccc1,"inconclusive: 39.8 µM [inhibitor, partial curve]"
9,Cn1c(=O)[nH]c(=O)c2c1nc(SCC(=O)O)n2CCc1ccccc1,"inconclusive: 39.8 µM [inhibitor, partial curve, poor fit]"
10,Cc1nn(CCc2n[nH]c(=S)n2C)c(C)c1Br,active: 7.08 µM
11,Cc1[nH]c2ccccc2c1CCN(Cc1cccnc1)C(=S)Nc1cccc(F)c1,"inconclusive: 50.1 µM [inhibitor, partial curve]"
12,Cc1csc(NC(=O)CSCC(=O)Nc2ccccc2)n1,"inconclusive: 79.4 µM [inhibitor, single point]"
13,O=C(/C=C/c1ccco1)Nc1sc2c(c1C(=O)O)CCC2,"inconclusive: 31.6 µM [inhibitor, partial curve]"
14,O=C(Cn1c(=O)n(Cc2ccccc2)c(=O)c2sc3ccccc3c21)Nc1ccc(F)cc1,inactive
15,CC1CCN(C2=NN3C(=N)/C(=C\c4ccc(OC(=O)c5ccco5)cc4)C(=O)N=C3S2)CC1,"inconclusive: 50.1 µM [inhibitor, partial curve]"
16,COc1ccc(C(C(O)C(=O)c2c[nH]c3ccccc23)N2CCN(c3ccc(OC)cc3)CC2)cc1 (stereo not drawn),"inconclusive: 44.7 µM [inhibitor, partial curve]"
17,CN(C)CCCN(C(=O)c1ccc(S(=O)(=O)N2CCc3ccccc3C2)cc1)c1nc2ccc(F)cc2s1,"inconclusive: 44.7 µM [inhibitor, partial curve]"
18,CCCOc1ccc(-c2nc3ccc(Br)cc3c(=O)o2)cc1,inactive
19,CC1CCC/C(=N\NC(=S)NCc2ccccc2)C1 (stereo not drawn),"inconclusive: 56.2 µM [inhibitor, partial curve]"
20,COc1cc(/C=N/NC(=O)c2[nH]nc3c2CCc2ccccc2-3)ccc1O,"inconclusive: 25.1 µM [inhibitor, single point]"
21,COC(=O)Cc1c(C)c2ccc(O)c(CNCc3ccc(OC)c(OC)c3)c2oc1=O,inactive
22,CCOCCCNC(=O)c1ccc(Cn2c(=O)c3cccn3c3cccnc32)cc1,inactive
